Data: PubChem BioAssay AID485344 (National Center for Advancing Translational Sciences (NCATS), 2010)
The campaign covered roughly 340,000 compounds. About 6,900 (2%) were called active. No stated cut-off is given here; in the data, active means inhibition above about 30%; inactive means below that, where a call was filed. The list shows a part of the results, in another mix than the full data. The source gives no active or inactive call for entries shown without one.
Further: 0% is about no effect.

What follows are compounds tested against D(2) dopamine receptor (Homo sapiens) (UniProt P14416) (assay: HTS Assay for Allosteric Antagonists of the Human D2 Dopamine Receptor: Primary Screen for Antagonists). Details: HEK293 TREx D2 cells, calcium flux, dopamine EC80; at 10 µM; stronger effect = higher value.
Sequence of UniProt P14416 (P14416 whole entry, looked up): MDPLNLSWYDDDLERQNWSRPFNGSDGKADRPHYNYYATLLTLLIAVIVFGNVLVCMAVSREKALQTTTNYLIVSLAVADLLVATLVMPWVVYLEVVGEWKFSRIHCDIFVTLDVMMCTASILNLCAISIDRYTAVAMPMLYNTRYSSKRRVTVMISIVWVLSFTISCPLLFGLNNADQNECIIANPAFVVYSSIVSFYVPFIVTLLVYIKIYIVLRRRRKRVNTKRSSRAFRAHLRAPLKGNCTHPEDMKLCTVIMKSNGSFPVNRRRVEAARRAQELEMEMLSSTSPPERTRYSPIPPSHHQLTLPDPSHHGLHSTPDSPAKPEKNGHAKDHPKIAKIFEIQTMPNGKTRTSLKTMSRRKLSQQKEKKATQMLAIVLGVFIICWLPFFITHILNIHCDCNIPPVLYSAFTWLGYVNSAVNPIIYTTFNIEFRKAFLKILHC
Outline: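 Tetracycline-induced HEK293 T-REx cells expressing D2 force-coupled to calcium signalling were dye-loaded, exposed to compound for 180 s, then challenged with an EC80 of dopamine; calcium flux was followed kinetically for a further 180 s.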
Compound `CCCCNC(=O)c1nn(-c2ccc(CC)cc2)nc1CO` has an inhibition of -12.2%. Work on `Cc1cccc(NC(=O)C2CCN(S(=O)(=O)c3ccc(F)cc3)CC2)c1C` yielded an inhibition of -3.32%. With `CNCCC=C1c2ccccc2CCc2ccccc21` the inhibition was active: 42.3%. `COc1cc(CN(C(=O)COc2ccc(C)cc2)c2ccccn2)cc(OC)c1OC` showed an inhibition of 12.7%. In the case of `COc1ccc(C(=O)N2CCN(Cc3cc(=O)n4nc(-c5ccccc5C)sc4n3)CC2)cc1OC`, the inhibition was -1.5%. Compound `CCOc1ccc(NC(=O)C2CC(=O)N(c3ccc(C(C)C)cc3)C2)cc1` (centres undefined) has an inhibition of -4.31%. In the case of `COc1ccc(C)cc1NC(=O)c1ccc2c(SCC(=O)O)c3c(nc2c1)CCCC3`, the inhibition was -10.1%. For `Cn1c(=O)n(-c2ccc3c(c2)OCO3)c2nc(-c3ccccc3)nc(C(N)=O)c21`, the inhibition was 2.98%. With `COc1ccc(NC(=O)c2sc3nc[nH]c(=O)c3c2C)cc1Cl` the inhibition was -26%. `CCCC1=Nc2cc(C(=O)NC3CCCC3)ccc2Sc2ccc(C)cc21` gave an inhibition of 12.2%. In the case of `Cc1cc(C)cc(NC(=O)CSc2cc(C)[nH]c(=O)n2)c1`, the inhibition was -5.44%. `CCOC(=O)CC(NC(=O)Cn1nnc(-c2ccc(C(F)(F)F)cc2)n1)c1ccc(OC)cc1` (centres undefined) was tested, and the inhibition was -15.5%. Compound `O=C(NCc1ccc(F)cc1)c1ccc(Nc2nc3ccccc3n3nnnc23)cc1` has an inhibition of 18.7%. `COc1ccccc1N1CCN(c2cc(C)nc3nc(-c4ccc(C)cc4)nn23)CC1` gave an inhibition of -11.6%. In the case of `Cc1c(C(=O)Nc2ccccc2F)sc2ncnc(N(C)C3CCCCC3)c12`, the inhibition was 5.77%. `Cc1cccc(CCNC(=O)CCc2c(C)nc3c4c(C)cc(C)nc4nn3c2C)c1` showed an inhibition of 12.7%. For `COc1ccc(CNC(=O)Cn2ncc3c([nH]c4ccccc43)c2=O)cc1`, the inhibition was -7.66%. Work on `CCc1cccc(C)c1NC(=O)Cn1c(=O)cc(C)c2c(C)nn(-c3cccc(F)c3)c21` yielded an inhibition of 2.54%. Compound `Cc1nn(-c2ccc(N3CCCC3)nn2)c(C)c1CCC(=O)Nc1ccc(F)cc1F` has an inhibition of 8.84%. In the case of `N=c1c(C(=O)NCC2CCCO2)cc2c(=O)n3ccccc3nc2n1Cc1ccc(Cl)cc1` (centres undefined), the inhibition was active: 55.3%. In the case of `Cc1cc2oc3c(c(=O)c2cc1C)C1(C(=O)N(C)c2ccccc21)N(CCO)C3=O` (centres undefined), the inhibition was 9.38%. Work on `CCn1c(CNC(=O)c2ccc(OC)cc2)nnc1SCC(=O)Nc1ccc(C)cc1` yielded an inhibition of 13.4%. Work on `Nc1cc(=O)nc(SCC(=O)Nc2ccc(F)cc2)n1CCc1ccccc1` yielded an inhibition of -14%. `CCCn1cnc2c(=O)oc3ccccc3c21` was tested, and the inhibition was active: 38.9%. Compound `O=C(Nc1ccccc1Br)C(Cc1ccccc1)NS(=O)(=O)c1cccc2nsnc12` (centres undefined) has an inhibition of -6.13%. `COc1ccccc1NC(=O)C1CCN(C(=O)c2sc3nc[nH]c(=O)c3c2C)CC1` was tested, and the inhibition was 1.84%. `CC(=O)c1ccc(NC(=O)c2ccc(-c3ccc(Cl)cc3)o2)cc1` was tested, and the inhibition was -0.2%. For `CC1(C)CC(O)(CNCc2ccc3c(c2)OCO3)CCO1` (centres undefined), the inhibition was active: 87.8%. Work on `CCN(CC)CCNC(=O)c1ccc2nc(CCc3ccccc3)oc2c1` yielded an inhibition of 17%. `CCOC(=O)c1cc(S(=O)(=O)N2CCN(c3ccc(C(C)=O)cc3)CC2)[nH]n1` gave an inhibition of 2.33%. `CCCC12CN3CC(CCC)(CN(C1)C3c1ccccc1)C2=O` (centres undefined) was tested, and the inhibition was 0.695%. For `CCOC(=O)c1ccc(NC(=O)NCCOCCn2c(=O)oc3ccccc32)cc1`, the inhibition was -4.35%. Compound `CCS(=O)(=O)c1nc(S(=O)(=O)c2ccc(C)cc2)c(NCCCOC)s1` has an inhibition of 0.727%. With `COc1ccc(CNC(=O)CSc2nc(-c3ccc(OC)c(OC)c3)cc(C(F)(F)F)n2)cc1` the inhibition was 2.2%. `COc1cc(Cl)c(NS(=O)(=O)c2ccc(-c3cnc(C4CC4)o3)cc2)c(OC)c1` was tested, and the inhibition was -17.3%. In the case of `O=C(NCCN1CCN(c2ccccc2)CC1)Nc1ccccc1Cl`, the inhibition was active: 34.6%. `O=C(Nc1nc2ccccc2s1)c1ccc(S(=O)(=O)N2CCCC2)cc1` gave an inhibition of -2.86%. `Cc1ccc(N2CCN(CC(O)COC3CCCCC3)CC2)cc1` (centres undefined) was tested, and the inhibition was active: 63.4%. With `O=S(=O)(c1ccc2nc(NCc3ccccc3Cl)ccc2c1)N1CCCCC1` the inhibition was -4.2%. `CCOc1ccc(C2C(=O)N(C3CCCCCC3)CC(=O)N2CCc2ccc(OC)c(OC)c2)cc1OC` (centres undefined) gave an inhibition of -3.27%. For `O=C(Oc1ccc(Cl)c2ccccc12)N1CCCCC1`, the inhibition was active: 55.9%. `O=C(Cn1cnc2c(oc3ccccc32)c1=O)Nc1ccc(F)cc1F` was tested, and the inhibition was 20.2%. Compound `O=C(CSc1nc2c(oc3ccccc32)c(=O)n1Cc1ccco1)Nc1ccccc1Cl` has an inhibition of -4.91%. In the case of `O=C(Cn1ncc2c3ccccc3n(Cc3cccc(Cl)c3)c2c1=O)NCc1cccs1`, the inhibition was 3.83%. `C/C(=N\NC(=O)c1cc2ccccc2cc1O)c1ccc2c(c1)OCO2` was tested, and the inhibition was active: 33.3%. With `CCc1ccc(OCc2nc(-c3ccc(OC)cc3)no2)c(Br)c1` the inhibition was -5.26%. `CCCCN(C)S(=O)(=O)c1ccc(C(=O)Nc2sc3c(c2C(N)=O)CC(C)(C)NC3(C)C)cc1` showed an inhibition of 24.2%. In the case of `CCCc1ccc(-c2ccc(C(=O)Oc3ccc(OCC)cc3)cc2)nc1`, the inhibition was -4.56%. `Cc1ccc(CCNC(=O)CS(=O)Cc2nc(-c3ccccc3C)oc2C)cc1` (centres undefined) gave an inhibition of -18.7%. Compound `Cc1c(CCC(=O)NCc2cccc(Cl)c2)c(=O)oc2c(C)c(O)ccc12` has an inhibition of -8.57%. `CCN(Cc1ccccc1)C(=O)Cn1c(=O)n(-c2ccc(Cl)cc2)c(=O)c2c(C)c(C(=O)N(C)C)sc21` was tested, and the inhibition was 6.06%. `CCOCCCN1C(=O)c2[nH]nc(-c3ccccc3O)c2C1c1ccc(CC)cc1` (centres undefined) showed an inhibition of 4.97%. In the case of `COC(=O)C(C)Sc1nnc(SC(C)C(=O)OC)s1` (centres undefined), the inhibition was active: 39.7%. Work on `CCCCc1nn2c(=O)cc(COC(=O)c3ccc(NC(=O)CCc4ccccc4)cc3)nc2s1` yielded an inhibition of -14%. `CCOC(=O)c1oc2c(c1C)-c1nn(Cc3c(F)cccc3Cl)cc1CC2` showed an inhibition of 14.2%. For `O=C(NC1CC1)c1cc2c(s1)-c1ccccc1OC2`, the inhibition was active: 34.1%. With `Cc1cccc(NC(=O)C2CCN(c3nc4ccccc4[nH]3)CC2)c1C` the inhibition was -9.68%. Work on `O=C(Nc1ccc2nc(SCC(=O)N3CCCC3)sc2c1)c1cccc(Br)c1` yielded an inhibition of -9.86%. Compound `Cc1ccc(C)c(CNC(=O)CCn2cccn2)c1` has an inhibition of 12.5%. In the case of `Cc1cc(C)cc(N2C(=O)CSC23C(=O)N(CC(=O)Nc2ccc(F)cc2F)c2ccccc23)c1` (centres undefined), the inhibition was -2.07%. `COc1ccccc1C(=O)N1CCC(c2noc(-c3ccc(S(=O)(=O)N4CCCC4)cc3)n2)CC1` showed an inhibition of -1.04%. `COc1cccc(CNC(=O)c2oc3c(c2C)-c2nn(Cc4cccc(Cl)c4)cc2CC3)c1OC` was tested, and the inhibition was 17.5%. Compound `O=C(NCCc1ccc(Cl)cc1)c1ccc(CS(=O)Cc2ccccc2Cl)o1` (centres undefined) has an inhibition of -21%. Compound `COc1ccc(NC(=O)Cn2c(SCc3ccc(F)cc3)nc3cccnc32)cc1OC` has an inhibition of -3.27%. With `CC(C)N(C)C1CCN(S(=O)(=O)c2ccc3[nH]c(=O)ccc3c2)CC1` the inhibition was -15.5%. In the case of `COc1cc(CN2CCN(c3ccccc3F)CC2)cc(OC)c1O`, the inhibition was active: 69.8%. In the case of `C=CCOc1ccccc1CN1CCC(C(=O)Nc2cccc(-c3ccn[nH]3)c2)CC1`, the inhibition was active: 92.4%. Compound `Cc1nc2ccc(S(=O)(=O)N(CC(=O)Nc3cccc(F)c3)Cc3ccccc3)cc2s1` has an inhibition of 8.16%. In the case of `O=C1CC(c2ccccc2)c2c(n3ncnc3[nH]c2=O)N1` (centres undefined), the inhibition was -16.3%. `CC(C)CCn1c(=O)c2sccc2n2c(CCCC(=O)NCCc3ccccc3)nnc12` showed an inhibition of 0.693%. In the case of `Cc1cc(=O)n2nc(N(C)CC(=O)NCc3cccc(Br)c3)sc2n1`, the inhibition was -2.56%. `CCCCN(C(=O)c1ccc(C#N)cc1)c1c(N)n(CCC)c(=O)[nH]c1=O` was tested, and the inhibition was active: 42%. With `O=C(CN1CCOCC1)Nc1ncc(Cc2cccc3ccccc23)s1` the inhibition was active: 42%. Work on `CCOc1ccc(OCC)c(NC(=O)Cn2nc(CC)n3c(cc4sccc43)c2=O)c1` yielded an inhibition of 16.7%. With `CCCCN(CC)CCCNC(=O)Cn1ncc2c3ccccc3n(C)c2c1=O` the inhibition was 1.81%. For `NC(=S)N/N=C/c1ccc2ccccc2c1`, the inhibition was active: 48.1%. `Cc1ccc(NC(=O)CN2CCSc3ccc(S(=O)(=O)N4CCCC4)cc32)cc1` was tested, and the inhibition was 0.539%. `CCN(Cc1nc(-c2ccc(OC)cc2)oc1C)S(=O)(=O)c1ccc(C)cc1` showed an inhibition of 6.33%. In the case of `CCOC(=O)Cc1ccc(NC(=O)N2CCC(CN3CCCCCC3)CC2)cc1`, the inhibition was -4.15%. In the case of `CCOc1ccccc1Nc1nnc(-c2cc3cc(OC)ccc3oc2=O)s1`, the inhibition was 2.37%. With `CCc1ccc(Oc2c(C(F)(F)F)oc3c(CN4CCC(C)CC4)c(O)ccc3c2=O)cc1` the inhibition was -6.4%. `CCCCN(CC)C(=O)c1cc2c(=O)n3cccc(C)c3nc2n1C` showed an inhibition of -5.42%. For `Cc1ccc(S(=O)(=O)CC(=O)Nc2sc3c(c2C(N)=O)CCCC3)cc1`, the inhibition was 25.6%. With `CCC(=O)c1ccccc1OCCN1CCN(Cc2ccccc2)CC1` the inhibition was active: 110%. In the case of `CC(C)CCNC(=O)Nc1ccc2c(c1)N(Cc1ccccc1)C(=O)c1ccccc1S2`, the inhibition was -6.32%. In the case of `Cc1ccccc1Nc1c(-c2ccc(Br)o2)nc2ccc(Cl)cn12`, the inhibition was 17.4%. Work on `CCc1ccc(NC(=O)Cc2c(C(=O)O)c(C)cn2C)cc1` yielded an inhibition of -11.7%. Compound `COc1cc(OC)c(NC(=O)c2cc(C)nc3c2c(C)nn3-c2ccc(C)cc2)cc1Cl` has an inhibition of -7.68%. `CCOc1ccc(-c2nn(CC(=O)NC3CCCC3)c3c2cnc2ccc(C)cc23)cc1` showed an inhibition of -1.15%. For `COc1ccc(CCNC(=O)c2ccc3c(c2)N(Cc2ccc(Cl)cc2)C(=O)c2ccccc2S3)cc1OC`, the inhibition was 14.2%. With `Cc1ccc(NC(=O)CCN2CCN(CCO)CC2)cc1C` the inhibition was -7.94%. In the case of `COc1ccc(-c2nc(C)c(CCNS(=O)(=O)c3ccc(F)cc3)s2)cc1OC`, the inhibition was -13.8%. Work on `COC(=O)c1ccccc1NC(=O)c1cn2c3c(ccc(Cl)c3c1=O)OC(C)C2` (centres undefined) yielded an inhibition of 3.35%. For `CC(C)c1ccc(CN(Cc2ccco2)c2cnc(S(C)(=O)=O)nc2C(=O)Nc2ccccc2)cc1`, the inhibition was 6.19%. `Cc1c(-c2nnc(SCC(=O)Nc3ccc(Br)cc3)o2)nnn1-c1ccc(F)cc1` gave an inhibition of -16.1%. `COc1ccc(C2(N3CCN(c4cccc(C)c4C)CC3)C(=O)c3ccccc3C2=O)cc1` showed an inhibition of -4.61%. With `COC(=O)c1ccn(-c2nc(-c3ccc(Cl)cc3)cc(C(F)(F)F)n2)n1` the inhibition was 7.66%. `Cc1ccc(C(=O)Nc2sc3c(c2C(=O)O)CCCCC3)o1` was tested, and the inhibition was active: 32.1%. Work on `CCOc1ccc(CNCCSc2nnnn2C)cc1OC` yielded an inhibition of -10.6%.
